# According to the supplement of paper PMC8728848:
# This is one part of the list.
# B1: VLRB.aGPA.23-GCN4-biotin (Petromyzon marinus) (protein)
# chain: ACPSQCSCSGTEVNCAGKSLASVPAGIPTTTRVLYLNSNQITKLEPGVFDRLANLRELHLWGNQLVSLPPGVFDNLANLEKLWLNSNQLTSLPAGLFDRLVNLEHLGLCCMKLTELPSGAFDKLTRLKQLGLDQNQLKSIPDGAFARLPSLTHVWLHTNPWDCQCTDILYLSGWVAQHSSIVGEGWPWRHSPDSAKCSGTNTPVRAVTEASTSPSKCP
# Key:
# Experiment in all cases: glycan array binding signal (z-score within array); higher = stronger binding
# Details in all cases: glycan notation: IUPAC condensed, linker removed
# Fuc(a1-2)Gal = target: Fuc(a1-2)Gal
# Outline: (§1)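 Negative Z-scores can be read as non-binding. The Z-score is calculated within each array and then averaged across arrays of one protein sequence at different concentrations or buffers and across linkers. Arrays, 3228 in all, were curated from the Consortium for Functional Glycomics database and kept only where the protein sequence was available.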
# Fuc(a1-2)Gal(b1-3)GalNAc = target: Fuc(a1-2)Gal(b1-3)GalNAc
# Outline: as §1
# [1] = target: Fuc(a1-2)Gal(b1-3)GalNAc(a1-3)[Fuc(a1-2)]Gal(b1-4)Glc
# Outline: as §1
# [2] = target: Fuc(a1-2)Gal(b1-3)GalNAc(a1-3)[Fuc(a1-2)]Gal(b1-4)GlcNAc
# Outline: as §1
# [3] = target: Fuc(a1-2)Gal(b1-3)GalNAc(b1-3)Gal
# Outline: as §1
# [4] = target: Fuc(a1-2)Gal(b1-3)GalNAc(b1-3)Gal(a1-4)Gal(b1-4)Glc
# Outline: as §1
# [5] = target: Fuc(a1-2)Gal(b1-3)GalNAc(b1-4)[Neu5Ac(a2-3)]Gal(b1-4)Glc
# Outline: as §1
# Fuc(a1-2)Gal(b1-3)GlcNAc = target: Fuc(a1-2)Gal(b1-3)GlcNAc
# Outline: as §1
# [6] = target: Fuc(a1-2)Gal(b1-3)GlcNAc(b1-2)Man(a1-3)[Fuc(a1-2)Gal(b1-3)GlcNAc(b1-2)Man(a1-6)]Man(b1-4)GlcNAc(b1-4)GlcNAc
# Outline: as §1
# [7] = target: Fuc(a1-2)Gal(b1-3)GlcNAc(b1-2)Man(a1-3)[Fuc(a1-2)Gal(b1-3)GlcNAc(b1-2)Man(a1-6)]Man(b1-4)GlcNAc(b1-4)[Fuc(a1-6)]GlcNAc
# Outline: as §1
# [8] = target: Fuc(a1-2)Gal(b1-3)GlcNAc(b1-3)Gal(b1-4)Glc
# Outline: as §1
# [9] = target: Fuc(a1-2)Gal(b1-3)GlcNAc(b1-3)GalNAc
# Outline: as §1
# [10] = target: Fuc(a1-2)Gal(b1-3)GlcNAc(b1-3)[Fuc(a1-2)Gal(b1-3)GlcNAc(b1-6)]GalNAc
# Outline: as §1
# [11] = target: Fuc(a1-2)Gal(b1-3)GlcNAc(b1-3)[Gal(b1-4)GlcNAc(b1-6)]Gal(b1-4)Glc
# Outline: as §1
# [12] = target: Fuc(a1-2)Gal(b1-3)GlcNAc(b1-3)[Neu5Ac(a2-6)Gal(b1-4)GlcNAc(b1-6)]Gal(b1-4)Glc
# Outline: as §1
# [13] = target: Fuc(a1-2)Gal(b1-3)GlcNAc6S
# Outline: as §1
# [14] = target: Fuc(a1-2)Gal(b1-3)[Fuc(a1-4)]GlcNAc
# Outline: as §1
# [15] = target: Fuc(a1-2)Gal(b1-3)[Fuc(a1-4)]GlcNAc(b1-2)Man(a1-3)[Fuc(a1-2)Gal(b1-3)[Fuc(a1-4)]GlcNAc(b1-2)Man(a1-3)]Man(b1-4)GlcNAc(b1-4)GlcNAc
# Outline: as §1
# [16] = target: Fuc(a1-2)Gal(b1-3)[Fuc(a1-4)]GlcNAc(b1-2)Man(a1-3)[Fuc(a1-2)Gal(b1-3)[Fuc(a1-4)]GlcNAc(b1-2)Man(a1-6)]Man(b1-4)GlcNAc(b1-4)[Fuc(a1-6)]GlcNAc(b1-4)[Fuc(a1-6)]GlcNAc
# Outline: as §1
# [17] = target: Fuc(a1-2)Gal(b1-3)[Fuc(a1-4)]GlcNAc(b1-3)[Fuc(a1-3)[Gal(b1-4)]GlcNAc(b1-6)]Gal(b1-4)Glc
# Outline: as §1
# [18] = target: Fuc(a1-2)Gal(b1-3)[Fuc(a1-4)]GlcNAc(b1-3)[Gal(b1-4)GlcNAc(b1-6)]Gal(b1-4)Glc
# Outline: as §1
# [19] = target: Fuc(a1-2)Gal(b1-4)Fuc(a1-3)]GlcNAc(b1-2)Man(a1-3)[Fuc(a1-2)Gal(b1-4)[Fuc(a1-3)]GlcNAc(b1-2)Man(a1-6)]Man(b1-4)GlcNAc(b1-4)GlcNAc
# Outline: as §1
# Fuc(a1-2)Gal(b1-4)Glc = target: Fuc(a1-2)Gal(b1-4)Glc
# Outline: as §1
# Fuc(a1-2)Gal(b1-4)Glc6S = target: Fuc(a1-2)Gal(b1-4)Glc6S
# Outline: as §1
# Fuc(a1-2)Gal(b1-4)GlcNAc = target: Fuc(a1-2)Gal(b1-4)GlcNAc
# Outline: as §1
# [20] = target: Fuc(a1-2)Gal(b1-4)GlcNAc(b1-2)Man
# Outline: as §1
# [21] = target: Fuc(a1-2)Gal(b1-4)GlcNAc(b1-2)Man(a1-3)[Fuc(a1-2)Gal(b1-4)GlcNAc(b1-2)Man(a1-6)]Man(b1-4)GlcNAc(b1-4)GlcNAc
# Outline: as §1
# [22] = target: Fuc(a1-2)Gal(b1-4)GlcNAc(b1-2)Man(a1-3)[Fuc(a1-2)Gal(b1-4)GlcNAc(b1-2)Man(a1-6)]Man(b1-4)GlcNAc(b1-4)[Fuc(a1-6)]GlcNAc
# Outline: as §1
# [23] = target: Fuc(a1-2)Gal(b1-4)GlcNAc(b1-2)[Fuc(a1-2)Gal(b1-4)GlcNAc(b1-4)]Man(a1-3)[Fuc(a1-2)Gal(b1-4)GlcNAc(b1-2)Man(a1-6)]Man(b1-4)GlcNAc(b1-4)GlcNAc
# Outline: as §1
# [24] = target: Fuc(a1-2)Gal(b1-4)GlcNAc(b1-3)Gal(b1-4)GlcNAc
# Outline: as §1
binder,measurement,setting,value
B1,glycan array binding signal (z-score),Fuc(a1-2)Gal,13.2
same,glycan array binding signal (z-score),Fuc(a1-2)Gal(b1-3)GalNAc,12.6
same,glycan array binding signal (z-score),[1],-0.07
same,glycan array binding signal (z-score),[2],-0.077
same,glycan array binding signal (z-score),[3],-0.022
same,glycan array binding signal (z-score),[4],-0.083
same,glycan array binding signal (z-score),[5],-0.082
same,glycan array binding signal (z-score),Fuc(a1-2)Gal(b1-3)GlcNAc,-0.082
same,glycan array binding signal (z-score),[6],-0.074
same,glycan array binding signal (z-score),[7],-0.077
same,glycan array binding signal (z-score),[8],-0.077
same,glycan array binding signal (z-score),[9],-0.081
same,glycan array binding signal (z-score),[10],-0.076
same,glycan array binding signal (z-score),[11],-0.083
same,glycan array binding signal (z-score),[12],-0.078
same,glycan array binding signal (z-score),[13],-0.058
same,glycan array binding signal (z-score),[14],-0.079
same,glycan array binding signal (z-score),[15],-0.074
same,glycan array binding signal (z-score),[16],-0.063
same,glycan array binding signal (z-score),[17],-0.087
same,glycan array binding signal (z-score),[18],-0.074
same,glycan array binding signal (z-score),[19],-0.074
same,glycan array binding signal (z-score),Fuc(a1-2)Gal(b1-4)Glc,-0.086
same,glycan array binding signal (z-score),Fuc(a1-2)Gal(b1-4)Glc6S,-0.072
same,glycan array binding signal (z-score),Fuc(a1-2)Gal(b1-4)GlcNAc,-0.076
same,glycan array binding signal (z-score),[20],-0.083
same,glycan array binding signal (z-score),[21],-0.084
same,glycan array binding signal (z-score),[22],-0.081
same,glycan array binding signal (z-score),[23],-0.082
same,glycan array binding signal (z-score),[24],-0.085
